# Experimental data taken from the supplement of paper PMC4604168 (melanoma cell lines).
# The list shows a part of the results. Most values come without repeats; read them as rough.
# Legend:
# Assay in all cases: cell count relative to DMSO control; melanoma cells; higher = more viable cells
# Conditions in all cases: library dose: standard library concentration; 72 h
# G361 = test system: G361
# IPC-298 = test system: IPC-298
# IST-MEL1 = test system: IST-MEL1
# LB2518-MEL = test system: LB2518-MEL
# LOXIMVI = test system: LOXIMVI
# MEL-HO = test system: MEL-HO
# MZ2-MEL = test system: MZ2-MEL
# MeWo = test system: MeWo
# RPMI7951 = test system: RPMI7951
# RVH-421 = test system: RVH-421
# 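Note: cells treated in 1,536-well plates, then fixed and DAPI-stained, with nuclei counted from automated high-throughput microscope images.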
Structure (SMILES),cell count (G361),cell count (IPC-298),cell count (IST-MEL1),cell count (LB2518-MEL),cell count (LOXIMVI),cell count (MEL-HO),cell count (MZ2-MEL),cell count (MeWo),cell count (RPMI7951),cell count (RVH-421)
"CNC(=O)c1cc(Oc2ccc(NC(=O)Nc3ccc(Cl)c(C(F)(F)F)c3)cc2)ccn1 [sorafenib] + O=C(O)c1ccc2c(c1)nc(Nc1cccc(Cl)c1)c1ccncc12 [CX4945] (first compound 2 µM, partner dose 2 µM)",75%,71.1%,73.2%,105%,75.4%,66%,72.6%,77.5%,42%,73.9%
"CNC(=O)c1cc(Oc2ccc(NC(=O)Nc3ccc(Cl)c(C(F)(F)F)c3)cc2)ccn1 [sorafenib] + Clc1ccc(Nc2nnc(Cc3ccncc3)c3ccccc23)cc1 [vatalanib] (first compound 2 µM, partner dose 10 µM)",74.2%,59.2%,79.5%,78.9%,125%,55.2%,71.3%,57.1%,58.9%,29.2%
"C[C@@H](Oc1cc(-c2cnn(C3CCNCC3)c2)cnc1N)c1c(Cl)ccc(F)c1Cl [Crizotinib] + C#Cc1cccc(Nc2ncnc3cc(OCCOC)c(OCCOC)cc23)c1 [erlotinib] (first compound 1 µM, partner dose 4 µM)",70.4%,64.2%,95.1%,55.7%,108%,83%,70.5%,55.5%,76.3%,16.6%
"CNC(=O)c1cc(Oc2ccc(NC(=O)Nc3ccc(Cl)c(C(F)(F)F)c3)cc2)ccn1 [sorafenib] + OCc1c[nH]c2ccccc12 [Indole-3-carbinol] (first compound 2 µM, partner dose 4 µM)",94.7%,85.2%,116%,72.9%,141%,91.5%,97.6%,88%,127%,88.9%
"C=CCNC1=C2C[C@@H](C)C[C@H](OC)[C@H](O)[C@@H](C)/C=C(\C)[C@H](OC(N)=O)[C@@H](OC)/C=C\C=C(/C)C(=O)NC(=CC1=O)C2=O [Tanespimycin] + Nc1cccc2c1CN(C1CCC(=O)NC1=O)C2=O [lenalidomide] (first compound 0.01 µM, partner dose 5 µM)",78.2%,98.8%,75.3%,80.6%,77.2%,101%,111%,64.3%,19.7%,85%
"CN1CCN(c2ccc3nc(-c4c(N)c5c(F)cccc5[nH]c4=O)[nH]c3c2)CC1 [Dovitinib] + Oc1nc(-c2ccc(C(F)(F)F)cc2)nc2c1CSCC2 [XAV939] (first compound 0.5 µM, partner dose 10 µM)",53%,79.8%,91.3%,59.3%,103%,73.4%,62.8%,56.2%,67.6%,121%
"CN1CCN(c2ccc3nc(-c4c(N)c5c(F)cccc5[nH]c4=O)[nH]c3c2)CC1 [Dovitinib] + OCCn1cc(-c2cnc3nnn(Cc4ccc5ncccc5c4)c3n2)cn1 [PF04217903] (first compound 0.5 µM, partner dose 5 µM)",51.6%,66.1%,69.5%,54.1%,66.1%,73.8%,40.7%,43.4%,56.2%,106%
"C[C@@H](Oc1cc(-c2cnn(C3CCNCC3)c2)cnc1N)c1c(Cl)ccc(F)c1Cl [Crizotinib] + COC(=O)c1sccc1S(=O)(=O)Nc1ccc(Nc2ccccc2)cc1OC [GSK0660] (first compound 1 µM, partner dose 5 µM)",82.4%,76.7%,91.5%,79%,100%,81.3%,71%,71.7%,81.6%,101%
"CNC(=O)c1cc(Oc2ccc(NC(=O)Nc3ccc(Cl)c(C(F)(F)F)c3)cc2)ccn1 [sorafenib] + Cn1cc(/C=C2\C(=O)Nc3cccnc32)c2ccccc21 [GW441756] (first compound 2 µM, partner dose 2 µM)",83.9%,92.2%,106%,97.1%,109%,91.2%,116%,81.4%,72.5%,116%
"CNC(=O)c1cc(Oc2ccc(NC(=O)Nc3ccc(Cl)c(C(F)(F)F)c3)cc2)ccn1 [sorafenib] + C[C@@H]1CCN(C(=O)CC#N)C[C@@H]1N(C)c1ncnc2[nH]ccc12 [CP690550] (first compound 2 µM, partner dose 5 µM)",93.8%,95%,103%,78.5%,137%,110%,119%,78.9%,155%,81%
"C=CCNC1=C2C[C@@H](C)C[C@H](OC)[C@H](O)[C@@H](C)/C=C(\C)[C@H](OC(N)=O)[C@@H](OC)/C=C\C=C(/C)C(=O)NC(=CC1=O)C2=O [Tanespimycin] + CC(C)(C)c1cnc(CSc2cnc(NC(=O)C3CCNCC3)s2)o1 [SNS-032] (first compound 0.01 µM, partner dose 0.05 µM)",50.7%,104%,58.9%,52.9%,89.6%,88.9%,103%,71.7%,13.9%,70.8%
"C[C@@H](Oc1cc(-c2cnn(C3CCNCC3)c2)cnc1N)c1c(Cl)ccc(F)c1Cl [Crizotinib] + Nc1cccc2c1CN(C1CCC(=O)NC1=O)C2=O [lenalidomide] (first compound 1 µM, partner dose 5 µM)",114%,88.7%,103%,102%,163%,105%,111%,83%,105%,80.6%
"CN1CCN(c2ccc3nc(-c4c(N)c5c(F)cccc5[nH]c4=O)[nH]c3c2)CC1 [Dovitinib] + Cn1c(Nc2ccc(C(F)(F)F)cc2)nc2cc(Oc3ccnc(-c4ncc(C(F)(F)F)[nH]4)c3)ccc21 [CHIR265] (first compound 0.5 µM, partner dose 0.4 µM)",32.4%,40.9%,75.7%,32.7%,92.7%,61.7%,24.9%,51.6%,51.4%,61.8%
"CN1CCN(c2ccc3nc(-c4c(N)c5c(F)cccc5[nH]c4=O)[nH]c3c2)CC1 [Dovitinib] + O=c1cc(-c2cccc3c2Sc2ccccc2S3)oc(N2CCOCC2)c1 [KU55933] (first compound 0.5 µM, partner dose 5 µM)",41.8%,82.9%,84.3%,63%,92.5%,85.4%,81%,47.6%,75.1%,86.8%
"C=CCNC1=C2C[C@@H](C)C[C@H](OC)[C@H](O)[C@@H](C)/C=C(\C)[C@H](OC(N)=O)[C@@H](OC)/C=C\C=C(/C)C(=O)NC(=CC1=O)C2=O [Tanespimycin] + O=C(O)C(=O)Nc1sc2c(c1C(=O)O)CCNC2 [TCS401] (first compound 0.01 µM, partner dose 8.33333 µM)",69.2%,85%,60.1%,75.7%,90.7%,80.6%,118%,80.7%,28.3%,80.2%
"CS(=O)(=O)CCNCc1ccc(-c2ccc3ncnc(Nc4ccc(OCc5cccc(F)c5)c(Cl)c4)c3c2)o1 [lapatinib] + COc1cc(N2CCC(N3CCN(C)CC3)CC2)ccc1Nc1ncc(Cl)c(Nc2ccccc2S(=O)(=O)C(C)C)n1 [NVP-TAE684] (first compound 4 µM, partner dose 0.4 µM)",55.4%,83%,83.3%,79.2%,81.3%,68.2%,46.4%,53.4%,44.3%,82%
"CN1CCN(c2ccc3nc(-c4c(N)c5c(F)cccc5[nH]c4=O)[nH]c3c2)CC1 [Dovitinib] + CN(C)S(=O)(=O)c1ccc2c(c1)/C(=C/c1cc3c([nH]1)CCCC3)C(=O)N2 [SU6656] (first compound 0.5 µM, partner dose 2 µM)",41%,54.8%,58.5%,47.4%,70.5%,62.2%,53.4%,37%,65.1%,79.5%
"CN1CCN(c2ccc3nc(-c4c(N)c5c(F)cccc5[nH]c4=O)[nH]c3c2)CC1 [Dovitinib] + Nc1ccn([C@@H]2O[C@H](CO)[C@@H](O)C2(F)F)c(=O)n1 [gemcitabine] (first compound 0.5 µM, partner dose 0.002 µM)",33.2%,32.7%,34.5%,,59.4%,45.3%,,25.6%,45.9%,56.8%
"CS(=O)(=O)CCNCc1ccc(-c2ccc3ncnc(Nc4ccc(OCc5cccc(F)c5)c(Cl)c4)c3c2)o1 [lapatinib] + CC(C)CCN1c2nc(Nc3cc(F)c(O)c(F)c3)ncc2N(C)C(=O)C1C [BID1870] (first compound 4 µM, partner dose 1 µM)",34.8%,71.6%,77.9%,129%,84.1%,59%,82.5%,58.3%,55.1%,76.3%
"CNC(=O)c1cc(Oc2ccc(NC(=O)Nc3ccc(Cl)c(C(F)(F)F)c3)cc2)ccn1 [sorafenib] + Cn1c(Nc2ccc(C(F)(F)F)cc2)nc2cc(Oc3ccnc(-c4ncc(C(F)(F)F)[nH]4)c3)ccc21 [CHIR265] (first compound 2 µM, partner dose 0.4 µM)",32.1%,43.1%,79%,41.7%,73%,67%,67.2%,61%,27.5%,34.2%
"CS(=O)(=O)CCNCc1ccc(-c2ccc3ncnc(Nc4ccc(OCc5cccc(F)c5)c(Cl)c4)c3c2)o1 [lapatinib] + O=c1cc(-c2cccc3c2Sc2ccccc2S3)oc(N2CCOCC2)c1 [KU55933] (first compound 4 µM, partner dose 5 µM)",36.6%,80.6%,77%,,86%,77%,,69.6%,55.3%,92.1%
